From paper PMC4081100 come the findings set out here.

Assay in all cases: universal protein binding microarray (PBM)
What all share (details): transcription factors of Arabidopsis thaliana; high values mean tight binding; most listed sequences are background and not binding sites; double strand, one strand shown

One assay has as its target T1, GST-ANAC092(1-176) (UniProt Q9FKA0).
T1 sequence: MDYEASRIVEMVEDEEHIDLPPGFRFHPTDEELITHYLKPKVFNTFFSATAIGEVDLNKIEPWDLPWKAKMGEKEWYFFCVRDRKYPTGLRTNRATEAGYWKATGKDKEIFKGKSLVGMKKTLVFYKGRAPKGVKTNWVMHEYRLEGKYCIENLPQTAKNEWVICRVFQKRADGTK

In another assay the target is GST-NTL6(1-168) (UniProt Q9SCK6).
Another assay addresses T2, GST-NAP(1-166) (UniProt O49255).
T2 sequence: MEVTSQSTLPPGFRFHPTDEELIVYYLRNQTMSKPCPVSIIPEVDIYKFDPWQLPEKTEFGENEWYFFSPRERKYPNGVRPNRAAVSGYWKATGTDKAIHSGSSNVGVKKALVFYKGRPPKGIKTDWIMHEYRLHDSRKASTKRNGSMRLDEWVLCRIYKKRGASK

Another assay deals with T3, GST-VND7 NAC domain (UniProt Q9C8W9).
T3 sequence: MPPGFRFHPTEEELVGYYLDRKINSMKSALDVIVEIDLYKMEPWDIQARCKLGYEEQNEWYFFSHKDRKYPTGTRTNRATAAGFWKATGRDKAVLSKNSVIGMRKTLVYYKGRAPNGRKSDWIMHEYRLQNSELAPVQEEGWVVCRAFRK

Assay [1] concerns the target T4, GST-VOZ2 (Arabidopsis thaliana) (UniProt Q9SLB9).
T4 sequence: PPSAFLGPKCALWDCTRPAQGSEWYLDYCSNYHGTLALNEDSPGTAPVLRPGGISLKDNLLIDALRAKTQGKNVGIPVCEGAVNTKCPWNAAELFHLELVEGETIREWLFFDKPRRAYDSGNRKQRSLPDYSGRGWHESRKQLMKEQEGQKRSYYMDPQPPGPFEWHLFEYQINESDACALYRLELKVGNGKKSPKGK

The next assay addresses GST-WRKY1(266-371) (UniProt Q9SI37).
The next assay addresses T5, GST-ANAC055(1-171) (UniProt Q9LDY8).
T5 sequence: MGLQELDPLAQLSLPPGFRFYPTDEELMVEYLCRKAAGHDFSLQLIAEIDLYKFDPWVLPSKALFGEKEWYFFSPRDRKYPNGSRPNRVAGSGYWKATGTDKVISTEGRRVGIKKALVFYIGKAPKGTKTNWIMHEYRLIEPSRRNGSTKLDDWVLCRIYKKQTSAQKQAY

Assay [2] deals with T6, GST-ANAC092(1-285) full length (UniProt Q9FKA0).
T6 sequence: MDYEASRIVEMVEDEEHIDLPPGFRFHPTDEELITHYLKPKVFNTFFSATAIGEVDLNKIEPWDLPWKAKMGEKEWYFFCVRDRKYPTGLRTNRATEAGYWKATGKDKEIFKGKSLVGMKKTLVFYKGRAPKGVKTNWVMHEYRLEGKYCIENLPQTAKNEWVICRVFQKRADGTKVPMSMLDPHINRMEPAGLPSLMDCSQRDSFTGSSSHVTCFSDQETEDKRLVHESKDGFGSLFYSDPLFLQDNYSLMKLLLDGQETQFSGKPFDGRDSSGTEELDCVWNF

A further assay concerns the target T7, GST-NTL8 NAC domain (UniProt Q9XIN7).
T7 sequence: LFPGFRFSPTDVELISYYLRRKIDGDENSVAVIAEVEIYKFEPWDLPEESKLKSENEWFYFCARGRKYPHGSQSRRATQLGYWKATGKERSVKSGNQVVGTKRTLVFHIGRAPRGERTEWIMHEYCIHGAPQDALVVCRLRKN

The next assay concerns the target T8, GST-ANAC019 NAC domain (UniProt Q9C932).
T8 sequence: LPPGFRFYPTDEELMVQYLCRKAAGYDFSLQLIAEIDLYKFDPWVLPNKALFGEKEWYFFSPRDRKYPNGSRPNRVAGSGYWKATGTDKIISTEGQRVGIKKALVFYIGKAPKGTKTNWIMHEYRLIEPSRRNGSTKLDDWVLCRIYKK

The next assay has as its target T9, GST-NST2(1-184) (UniProt Q9M274).
T9 sequence: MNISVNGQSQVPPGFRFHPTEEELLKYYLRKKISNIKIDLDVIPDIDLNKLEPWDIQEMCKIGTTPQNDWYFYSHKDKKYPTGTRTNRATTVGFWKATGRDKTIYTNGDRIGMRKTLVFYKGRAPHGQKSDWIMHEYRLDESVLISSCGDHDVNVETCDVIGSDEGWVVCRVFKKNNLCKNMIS

The target of a further assay is T10, GST-VND3 NAC domain (UniProt Q9FH59).
T10 sequence: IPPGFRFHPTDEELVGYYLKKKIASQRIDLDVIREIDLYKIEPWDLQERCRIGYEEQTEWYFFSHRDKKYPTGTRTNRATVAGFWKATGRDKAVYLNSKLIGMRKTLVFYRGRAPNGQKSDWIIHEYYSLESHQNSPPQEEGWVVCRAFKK

For the next assay, the target named is T11, GST-ATAF1 NAC domain (UniProt Q39013).
T11 sequence: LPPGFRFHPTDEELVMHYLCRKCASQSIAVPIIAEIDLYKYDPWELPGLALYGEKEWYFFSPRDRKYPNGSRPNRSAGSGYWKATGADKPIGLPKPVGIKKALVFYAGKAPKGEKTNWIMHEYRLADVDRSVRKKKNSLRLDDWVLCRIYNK

The entries are a selection whose mix differs from that of the whole data set. For some assays here: At the low end of the ranking the order means little. The list shows a part of the results. For some assays here: The exact form of the protein is not confirmed.

For the sequence ATTCCGTA, the binding signal with GST-ANAC092(1-176) is 0.209 E-score; with GST-NTL6(1-168), 0.17 E-score; with GST-NAP(1-166), 0.381 E-score; with GST-VND7 NAC domain, 0.374 E-score; in assay [1], -0.0119 E-score; with GST-WRKY1(266-371), 0.0324 E-score.

As for GAGGTAAC, the binding signal with GST-ANAC092(1-176) is 0.191 E-score; in the assay with GST-NTL6(1-168) it was 0.155 E-score; in the assay with GST-ANAC055(1-171) it was 0.0267 E-score; in [2] it was 0.2 E-score; in the assay with GST-NAP(1-166) it was 0.00583 E-score; in the assay with GST-NTL8 NAC domain, 0.437 E-score. For the same sequence, the binding signal with GST-VND7 NAC domain was 0.0864 E-score; in [1], 0.0115 E-score; in the assay with GST-WRKY1(266-371), -0.155 E-score.

Take ACACGTCA: the binding signal is 0.484 E-score with GST-ANAC092(1-176); -0.00907 E-score with GST-NTL6(1-168); 0.436 E-score with GST-ANAC019 NAC domain; 0.431 E-score in the assay with GST-NAP(1-166); -0.0975 E-score with GST-NTL8 NAC domain; 0.447 E-score in the assay with GST-VND7 NAC domain. Further, the binding signal in assay [1] is 0.0676 E-score; in the assay with GST-WRKY1(266-371), 0.251 E-score.

For ACGGAAAC, the binding signal with GST-ANAC092(1-176) was determined as 0.325 E-score; with GST-NTL6(1-168), 0.205 E-score; with GST-ANAC019 NAC domain it was 0.412 E-score; in the assay with GST-ANAC055(1-171), 0.388 E-score; with GST-NTL8 NAC domain it was 0.243 E-score; in the assay with GST-VND7 NAC domain it was 0.361 E-score. The binding signal in [1] amounted to 0.0699 E-score; in the assay with GST-WRKY1(266-371), 0.0265 E-score.

For GACGCAAC, the binding signal with GST-NTL6(1-168) was 0.00137 E-score; with GST-ANAC019 NAC domain, 0.294 E-score; with GST-ANAC055(1-171) it was 0.293 E-score; in the assay with GST-NST2(1-184) it was 0.295 E-score; with GST-NTL8 NAC domain, 0.0123 E-score; with GST-VND3 NAC domain, 0.295 E-score. In addition, the binding signal in assay [1] is 0.16 E-score.

For the sequence TGAAGAAA, the binding signal was determined as 0.339 E-score with GST-NTL6(1-168); 0.151 E-score in the assay with GST-ANAC019 NAC domain; 0.114 E-score with GST-ANAC055(1-171); 0.129 E-score with GST-ATAF1 NAC domain; 0.0893 E-score with GST-NAP(1-166); 0.121 E-score with GST-VND3 NAC domain. This sequence also had a binding signal in assay [1] of 0.0879 E-score.

Take GCACGAAA: the values for the binding signal (with GST-VND7 NAC domain; in assay [1]; with GST-WRKY1(266-371)) were 0.145 E-score, 0.0912 E-score and -0.135 E-score, respectively.

As for AGTCAAAA, the binding signal is -0.079 E-score in the assay with GST-NTL6(1-168); 0.0721 E-score in the assay with GST-ANAC019 NAC domain; 0.034 E-score with GST-ANAC055(1-171); -0.0401 E-score with GST-NAP(1-166); 0.0468 E-score with GST-NST2(1-184); 0.0351 E-score with GST-NTL8 NAC domain. For the same sequence, the binding signal in the assay with GST-VND3 NAC domain worked out at 0.104 E-score; in [1], 0.0017 E-score.

ATGTCAAC: the binding signal is -0.105 E-score in the assay with GST-ANAC092(1-176); 0.0563 E-score with GST-NTL6(1-168); -0.138 E-score with GST-ANAC019 NAC domain; 0.0406 E-score in assay [2]; 0.106 E-score in the assay with GST-NAP(1-166); -0.103 E-score in the assay with GST-NTL8 NAC domain. Besides, the binding signal was found to be 0.124 E-score in the assay with GST-VND7 NAC domain, 0.0344 E-score in assay [1] and 0.443 E-score with GST-WRKY1(266-371).
